Drawing on the antibiotic and cytotoxicity screens of Wong et al. (2023), this text covers cytotoxicity call and growth inhibition call for 28 compounds.

The subject of test [1] is HSkMC (human skeletal muscle cells). Kind of test: cytotoxicity call (relative viability < 0.9). Particulars: 10 µM.
For test [2], the system named is HepG2. Kind of test: cytotoxicity call (relative viability < 0.9). As to conditions: 10 µM.
For test [3], the system named is S. aureus RN4220. Kind of test: growth inhibition call (relative growth <= 0.2). As to conditions: 50 µM.

Some of the results follow.

Turning to `Cc1ccc(S(=O)(=O)Nc2ccc3c(c2)CC(=O)N([C@H](C)CO)C[C@H](C)[C@@H](CN(C)Cc2ccncc2)O3)cc1`, the cytotoxicity call in test [1] and in test [2] was “inactive” in each case. Moreover, the growth inhibition call in test [3] was “inactive”.
As for `C[C@@H]1CCCCO[C@@H](CN(C)Cc2ccc(C(=O)O)cc2)[C@@H](C)CN([C@@H](C)CO)C(=O)c2cc(NC(=O)Nc3ccc(C(F)(F)F)cc3)ccc2O1`, the cytotoxicity call in test [1] and in test [2] was “inactive” in each case. Besides, in test [3], the growth inhibition call was “inactive”.
As to `c1ccc2c(c1)ccc1cc3c(ccc4ccccc43)cc12`, the cytotoxicity call in test [1] and in test [2] was “inactive” in each case. The growth inhibition call in test [3] was “inactive”.
Turning to `Oc1ccc(F)c2ccccc12`, the cytotoxicity call in test [1] and in test [2] was “inactive” in each case. The growth inhibition call in test [3] was “inactive”.
On to `CN(C)c1cc(NC(=O)CNC(C)(C)C)c(O)c2c1C[C@H]1C[C@H]3[C@H](N(C)C)C(=O)[C@@H](C(N)=O)C(=O)[C@@]3(O)C(=O)[C@H]1C2=O`, for which the cytotoxicity call in test [1] and in test [2] was “inactive” each time. In addition, the growth inhibition call in test [3] was “inactive”.
As to `C[C@@H]1CN([C@H](C)CO)C(=O)c2cc(NS(C)(=O)=O)ccc2O[C@@H](C)CCCCO[C@@H]1CN(C)Cc1ccc(C(F)(F)F)cc1`, the cytotoxicity call in test [1] and in test [2] was “inactive” throughout. Besides, the growth inhibition call in test [3] is “inactive”.
For the compound `C[C@H]1CN([C@@H](C)CO)S(=O)(=O)c2ccc(C#CC3CCCCC3)cc2O[C@@H]1CN(C)C(=O)Cc1ccncc1`, the cytotoxicity call in test [1] and in test [2] was “inactive” throughout. For the same compound, the growth inhibition call in test [3] was “inactive”.
Turning to `C[C@@H]1CCCCO[C@H](CN(C)Cc2ccc(Cl)c(Cl)c2)[C@@H](C)CN([C@H](C)CO)C(=O)c2cc(NC(=O)NC3CCCCC3)ccc2O1`, the cytotoxicity call in test [1] and in test [2] was “inactive” throughout. Moreover, the growth inhibition call in test [3] is “inactive”.
Take `COc1ccc(CN(C)C[C@H]2OCCCC[C@@H](C)Oc3ccc(NC(=O)Nc4ccc(C(F)(F)F)cc4)cc3C(=O)N([C@@H](C)CO)C[C@H]2C)cc1`: the cytotoxicity call in test [1] and in test [2] was “active” throughout. The growth inhibition call in test [3] is “inactive”.
As for `Cc1ccc(OC(=O)N(C)C[C@@H]2OCc3ccccc3-c3ccccc3C(=O)N([C@H](C)CO)C[C@@H]2C)cc1`, the cytotoxicity call in test [1] and in test [2] was “inactive” in each case. The growth inhibition call in test [3] is “inactive”.
`C/C=C\C1=C(C(=O)O)N2C(=O)[C@H](NC(=O)[C@@H](N)c3ccc(O)cc3)[C@@H]2SC1`: the cytotoxicity call in test [1] and in test [2] was “inactive” in each case. In addition, the growth inhibition call in test [3] was “inactive”.
Turning to `C[C@H]1CN([C@@H](C)CO)C(=O)c2cccc(NC(=O)c3cnccn3)c2O[C@@H]1CN(C)C(=O)Nc1ccccc1`, the cytotoxicity call in test [1] and in test [2] was “inactive” each time. Also, in test [3], the growth inhibition call was “inactive”.
In the case of `C[C@@H]1CN([C@@H](C)CO)C(=O)c2cc(NS(=O)(=O)c3ccc(F)cc3)ccc2O[C@@H](C)CCCCO[C@H]1CN(C)C(=O)Nc1ccc(F)cc1`, the cytotoxicity call in test [1] and in test [2] was “inactive” in each case. Besides, in test [3], the growth inhibition call is “inactive”.
With `CCCOc1c(-c2ccc3ccccc3n2)cnc2ccccc12`, the cytotoxicity call in test [1] is “inactive”. Moreover, in test [2], the cytotoxicity call is “active”. Besides, the growth inhibition call in test [3] is “inactive”.
As to `C[C@@H]1CN([C@@H](C)CO)C(=O)c2cccc(NC(=O)C3CCCCC3)c2O[C@@H]1CN(C)C(=O)Nc1ccc(C(F)(F)F)cc1`, the cytotoxicity call in test [1] and in test [2] was “inactive” each time. The growth inhibition call in test [3] is “active”.
For `C[C@@H]1CN([C@H](C)CO)C(=O)c2cc(NS(=O)(=O)c3cn(C)cn3)ccc2O[C@H]1CN(C)S(=O)(=O)c1ccc(Cl)cc1`, the cytotoxicity call in test [1] and in test [2] was “inactive” in each case. Further, the growth inhibition call in test [3] was “inactive”.
With `COc1ccccc1S(=O)(=O)N1C[C@H](O)COC[C@@H]2O[C@H](CC(=O)O)CC[C@H]21`, the cytotoxicity call in test [1] and in test [2] was “inactive” each time. Also, the growth inhibition call in test [3] is “inactive”.
On to `Cc1ccc(S(=O)(=O)N(C)C[C@@H]2Oc3ccc(N(C)C)cc3CC(=O)N([C@H](C)CO)C[C@@H]2C)cc1`, for which the cytotoxicity call in test [1] is “inactive”. Moreover, the cytotoxicity call in test [2] was “active”. The growth inhibition call in test [3] is “inactive”.
On to `COc1ccc(NC(=O)Nc2ccc3c(c2)CC(=O)N([C@H](C)CO)C[C@@H](C)[C@H](CN(C)Cc2ccc(C(=O)Nc4ccccc4N)cc2)O3)cc1`, for which the cytotoxicity call in test [1] and in test [2] was “inactive” in each case. Moreover, in test [3], the growth inhibition call was “inactive”.
For the compound `C[C@@H]1CCCCO[C@@H](CN(C)C(=O)c2ccccc2)[C@@H](C)CN([C@H](C)CO)C(=O)c2cc(NC(=O)c3ccccc3)ccc2O1`, the cytotoxicity call in test [1] and in test [2] was “inactive” in each case. Further, the growth inhibition call in test [3] was “inactive”.
As for `C[C@@H]1CN([C@@H](C)CO)C(=O)c2cc(NC(=O)Nc3cccc4ccccc34)ccc2O[C@H]1CN(C)Cc1ccncc1`, the cytotoxicity call in test [1] and in test [2] was “inactive” throughout. Moreover, the growth inhibition call in test [3] was “inactive”.
As for `C[C@@H]1CN([C@@H](C)CO)C(=O)Cc2cc(NC(=O)Nc3ccc(C(F)(F)F)cc3)ccc2O[C@H]1CN(C)Cc1ccc(C(F)(F)F)cc1`, the cytotoxicity call in test [1] and in test [2] was “active” in each case. In test [3], the growth inhibition call was “inactive”.
For `COC(=O)c1ccc2c(c1)no[n+]2[O-]`, the cytotoxicity call in test [1] and in test [2] was “inactive” in each case. Besides, in test [3], the growth inhibition call is “inactive”.
On to `C[C@@H]1CCCCO[C@H](CN(C)CC2CCCCC2)[C@H](C)CN([C@@H](C)CO)C(=O)c2cc(NC(=O)C3CCCCC3)ccc2O1`, for which the cytotoxicity call in test [1] and in test [2] was “inactive” each time. In test [3], the growth inhibition call was “inactive”.
For `C[C@H](CO)NS(=O)(=O)c1ccnn1C`, the cytotoxicity call in test [1] and in test [2] was “inactive” throughout. The growth inhibition call in test [3] was “inactive”.
As to `Cc1noc(C)c1NC(=O)Nc1ccc2c(c1)C(=O)N([C@H](C)CO)C[C@@H](C)[C@@H](CN(C)Cc1ccc(Oc3ccccc3)cc1)O2`, the cytotoxicity call in test [1] and in test [2] was “inactive” in each case. Also, in test [3], the growth inhibition call is “inactive”.
Regarding `N=C(N)NCCC[C@@H](NC(=O)[C@@H]1CCCN1C(=O)[C@H]1CSSCCC(=O)N[C@@H](Cc2ccc(O)cc2)C(=O)N[C@@H](Cc2ccccc2)C(=O)N[C@@H](CCC(N)=O)C(=O)N[C@@H](CC(N)=O)C(=O)N1)C(=O)NCC(N)=O`, the cytotoxicity call in test [1] and in test [2] was “inactive” throughout. The growth inhibition call in test [3] was “inactive”.
Take `O=C(O)CCCCC(=O)O`: the cytotoxicity call in test [1] and in test [2] was “inactive” in each case. In test [3], the growth inhibition call is “inactive”.
